# Reference: PubChem BioAssay AID493014 (National Center for Advancing Translational Sciences (NCATS), 2011)
# The campaign covered roughly 340,000 compounds. About 170 (0.05%) were called active. Inconclusive results (about 26%) are left out. The call rests on the fitted dose curve; in most records, active means well fitted inhibition curve with a large enough effect in the signal ratio, with a control signal flat (not every such curve was filed as active); inconclusive means small, poorly fitted or top-dose-only effect, or effect the other way, or a change in a side signal; inactive means flat fitted curve, though single readings scatter; the % refers to the signal ratio. The list shows a part of the results, in another mix than the full data.
# Experiment: qHTS Assay to Find Inhibitors of Chronic Active B-Cell Receptor Signaling;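 on activity change, negative = inhibition: plate controls were basal doxycycline-induced cells for no effect and cells given 10 µM MG132 for full effect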
# Settings: ABC-DLBCL IkBa-CBG/CBR reporter, luminescence ratio (green luciferase fused to IkBa over red control in TMD8 lymphoma cells), 4 h; series mostly up to 46.1 µM; activity change, negative = inhibition: at the top concentration
# Method in brief: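 TMD8 human ABC-DLBCL cells with doxycycline-inducible IκBα–green luciferase fusion and unfused red luciferase, in 0.5% FBS medium; compounds up to 46 uM, 4 h at 37C. Green/red luminescence ratio, filter-overlap corrected, fitted to concentration-response curves.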
# Potency means the concentration at half of the fitted maximal effect.
Structure (SMILES),"activity change, negative = inhibition",Potency
COC(=O)C1=C(C)N(Cc2ccccc2)C(=NCCc2c[nH]c3ccccc23)N[C@H]1c1ccccc1,inactive: 0.548%,
O=C(NC1CC1)C1=C[C@H](C2CCCCC2)C[C@H](OCc2ccc(CO)cc2)O1,inactive: 3.6%,
C[C@@H](N)C(=O)NC[C@H]1O[C@@H](n2cnc3c(N)ncnc32)[C@H](O)[C@@H]1O,inactive: 4.52%,
Cc1cn(C2C=CC(CO)O2)c(=O)[nH]c1=O (configuration not stated),inactive: -0.889%,
CCOC(=O)c1c(C)nc(C)c(C(=O)OCC)c1-c1ccc(OC)cc1,inactive: -3.32%,
Cc1onc(-c2c(Cl)cccc2Cl)c1C(=O)N[C@@H]1C(=O)N2[C@@H]1SC(C)(C)[C@@H]2C(=O)O,,inactive
COc1ccc([C@@H]2CC(=O)c3c(O)cc(O[C@@H]4OC(CO[C@@H]5OC(C)[C@H](O)[C@@H](O)[C@H]5O)[C@@H](O)[C@H](O)[C@H]4O)cc3O2)cc1O (some centres not stated),inactive: 0.677%,
O=c1cc(-c2ccc(O)cc2)oc2cc(O)c([C@@H]3O[C@H](CO)[C@@H](O)[C@H](O)[C@H]3O)c(O)c12,inactive: 5.29%,
O=C(O)c1ccc(CSc2nnc(-c3ccco3)o2)cc1,,active: 18.4 µM
COC(=O)[C@H]1[C@H]2C[C@H]3c4[nH]c5ccccc5c4CCN3C[C@@H]2CC[C@@H]1O,,inactive
COc1ccc2c(c1OC)C(=O)OC2C1c2c(cc3c(c2OC)OCO3)CCN1C (configuration not stated),,inactive
O=C(C1=C[C@H](c2coc3ccccc3c2=O)C[C@H](OCCCCO)O1)N1CCOCC1,inactive: -2.6%,
COc1ccc(C2C(=O)N(C3CCCCC3)CC(=O)N2C2CCCCC2)cc1 (configuration not stated),inactive: -3.36%,
C[C@@H]1C=C(C(=O)NC2CC2)O[C@H](OCc2ccc(CO)cc2)C1,inactive: -9.18%,
CCCOC(=O)CCCC[C@H]1SC[C@@H](NC(=O)OC)[C@H]1NC(=O)OC,inactive: -2.32%,
O=C(C[C@@H]1C/C=C/CC[C@@H](Cc2ccc(F)cc2)C(=O)OC[C@H](Cc2ccccc2)NC1=O)N[C@H](CO)Cc1ccccc1,inactive: 4.27%,
C[C@@H]1CC[C@]2(O[C@@H](CCO)C[C@H](O)[C@H]2O)O1,inactive: -0.458%,
CCN1C(=NCCCCO)N[C@@H](c2cccc(C(F)(F)F)c2)C(C(=O)OC)=C1C,inactive: -11.7%,
CCOC(=O)c1ccc(NC(=O)N2CC(C)OC(C)C2)cc1 (configuration not stated),inactive: -3.38%,
CCN(CC)CCOc1ccc(/C(=C(\Cl)c2ccccc2)c2ccccc2)cc1,inactive: -9.88%,
Cc1ccc(S(=O)(=O)Nc2c(C)n(C)n(-c3ccccc3)c2=O)cc1,inactive: 3.45%,
CCOC(=O)/C(C(C)=O)=C1\OC(=O)c2ccccc21,inactive: 0.766%,
C#CCNC(=O)C1=C[C@@H](c2coc3ccccc3c2=O)C[C@@H](OCc2ccc(CO)cc2)O1,inactive: -11.8%,
O=S1(=O)C=C(Sc2nc3cc(Cl)ccc3o2)c2ccccc21,,active: 6.31 µM

Structure (SMILES),"activity change, negative = inhibition",Potency
COc1cccc(-c2nc(N3CCN(Cc4ccccc4)CC3)c3ccccc3n2)c1O,inactive: 4.97%,
CCn1c(=O)cc(SCC(=O)N2CCN(c3ccccn3)CC2)c2ccccc21,,active: 16.4 µM
O=C1C2C3c4ccccc4C(c4ccccc43)C2C(=O)N1c1nc(-c2ccccc2)cs1 (configuration not stated),inactive: -4.06%,
COc1ccc(N(CCC#N)C(=O)/C(C#N)=C/c2cccs2)cc1,inactive: -1.24%,
COc1ccc(NS(=O)(=O)c2ccc(N)cc2)nn1,inactive: 6.24%,
Cc1cc(NC(=O)Nc2cccc3ccccc23)no1,inactive: -4.01%,
C[C@H](NC(=O)c1ccccc1Cl)C(=O)OCc1cn2cc(Cl)ccc2n1,inactive: -0.172%,
c1cncc(CNc2ncnc3ccc(-c4ccc5c(c4)OCO5)cc23)c1,inactive: -10.8%,
C=CCC[C@@H](Cc1ccc(F)cc1)C(=O)OC[C@H](C)NC(=O)[C@@H](CC=C)CC(=O)N[C@@H](CO)Cc1ccccc1,inactive: 0.537%,
CN1CCc2c(c3c(n2C)CCN(C)[C@@H]3c2cccnc2)[C@H]1c1cccnc1,inactive: 5.78%,
Cc1ccc(CNC(=O)C2CCN(S(=O)(=O)N3CCCCC3)CC2)cc1,inactive: -1.21%,
COc1ccc(-c2n[nH]c(=S)n2/N=C/C=C/c2ccccc2OC)cc1,inactive: -7.29%,
Cc1noc(C)c1-c1csc(N2CCC(C(N)=O)CC2)n1,inactive: 8.68%,
CCOC(=O)/C(C#N)=C1/C(=O)N(Cc2ccccc2)c2ccccc21,inactive: 4.69%,
COc1ccc(CNC(=O)/C(C#N)=C/c2cccc(OC)c2OC)cc1,,active: 11.2 µM
CCO[C@@H]1OC(C(=O)N2CCCCCCC2)=C[C@H](c2csc3ccccc23)[C@H]1CCCO,inactive: -5.28%,
CCOC(=O)C1=C(CN2CCCCC2)NC(=O)NC1c1cc(C)ccc1C (configuration not stated),inactive: -2.91%,
CC(C)NC(=O)Nc1cccc2c1O[C@H](CN(C)C(=O)NC1CCCCC1)[C@H](C)CN([C@H](C)CO)C2=O,inactive: 1.17%,
CC(C)(C)OC(=O)C[C@@H]1C/C=C\C[C@H](CC(=O)N[C@@H](CO)Cc2ccccc2)C(=O)N[C@H](C(C)(C)C)COC1=O,inactive: 4.08%,
COCCN(Cc1cc2cc(C)cc(C)c2nc1Cl)C(=O)Nc1ccccc1,,active: 16.4 µM
CCOC(=O)[C@@H]1[C@H]2COc3ccc(Br)cc3[C@H]2N2C(=O)N(c3ccc(Cl)cc3)C(=O)[C@@]12C,inactive: 6.97%,
CN1CCN(C(=O)C2=C[C@@H](c3coc4ccccc4c3=O)C[C@@H](OCCCCO)O2)CC1,inactive: -0.834%,
CCN1C(=NCCCOC(C)C)N[C@@H](CCc2ccccc2)[C@H](C(=O)NCCCOC(C)C)[C@H]1C,inactive: -2.09%,
